Test results as given in PubChem BioAssay AID504333 (National Center for Advancing Translational Sciences (NCATS), 2011).
The campaign covered roughly 360,000 compounds. About 16,000 (4.4%) were called active. The shares of active, inactive and inconclusive entries below differ from those in the screen. Calls follow the shape of the dose curve; as a rule, active = well fitted inhibition curve with a large enough effect; inconclusive = small, poorly fitted or top-dose-only effect; inactive = no such curve, though single readings can be large or run the other way. Potencies beside an inconclusive call are fits to weak or partial responses and may not hold up.

Molecular target: Bromodomain adjacent to zinc finger domain protein 2B (Homo sapiens) (UniProt Q9UIF8)
Test: qHTS Assay for Inhibitors of BAZ2B; also: nearly all actives have a fitted effect of over 60% in size
Settings: AlphaScreen BAZ2B-H3K14Ac peptide displacement; series mostly up to 114 µM
How it was run: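 Inhibition is scored as reduced AlphaScreen emission. The BAZ2B/b-H3(5-23)K14Ac complex (50 nM each) in PBS pH 7.4, 0.01% Tween-20 meets compound (up to 110 uM) for 30 min at RT before bead addition.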
Potency is read from the fitted curve at half-maximal effect; tags tell the direction and shape of the fitted curve.

UniProt Q9UIF8, sequence (Q9UIF8 whole entry, looked up, the tested form may be a part): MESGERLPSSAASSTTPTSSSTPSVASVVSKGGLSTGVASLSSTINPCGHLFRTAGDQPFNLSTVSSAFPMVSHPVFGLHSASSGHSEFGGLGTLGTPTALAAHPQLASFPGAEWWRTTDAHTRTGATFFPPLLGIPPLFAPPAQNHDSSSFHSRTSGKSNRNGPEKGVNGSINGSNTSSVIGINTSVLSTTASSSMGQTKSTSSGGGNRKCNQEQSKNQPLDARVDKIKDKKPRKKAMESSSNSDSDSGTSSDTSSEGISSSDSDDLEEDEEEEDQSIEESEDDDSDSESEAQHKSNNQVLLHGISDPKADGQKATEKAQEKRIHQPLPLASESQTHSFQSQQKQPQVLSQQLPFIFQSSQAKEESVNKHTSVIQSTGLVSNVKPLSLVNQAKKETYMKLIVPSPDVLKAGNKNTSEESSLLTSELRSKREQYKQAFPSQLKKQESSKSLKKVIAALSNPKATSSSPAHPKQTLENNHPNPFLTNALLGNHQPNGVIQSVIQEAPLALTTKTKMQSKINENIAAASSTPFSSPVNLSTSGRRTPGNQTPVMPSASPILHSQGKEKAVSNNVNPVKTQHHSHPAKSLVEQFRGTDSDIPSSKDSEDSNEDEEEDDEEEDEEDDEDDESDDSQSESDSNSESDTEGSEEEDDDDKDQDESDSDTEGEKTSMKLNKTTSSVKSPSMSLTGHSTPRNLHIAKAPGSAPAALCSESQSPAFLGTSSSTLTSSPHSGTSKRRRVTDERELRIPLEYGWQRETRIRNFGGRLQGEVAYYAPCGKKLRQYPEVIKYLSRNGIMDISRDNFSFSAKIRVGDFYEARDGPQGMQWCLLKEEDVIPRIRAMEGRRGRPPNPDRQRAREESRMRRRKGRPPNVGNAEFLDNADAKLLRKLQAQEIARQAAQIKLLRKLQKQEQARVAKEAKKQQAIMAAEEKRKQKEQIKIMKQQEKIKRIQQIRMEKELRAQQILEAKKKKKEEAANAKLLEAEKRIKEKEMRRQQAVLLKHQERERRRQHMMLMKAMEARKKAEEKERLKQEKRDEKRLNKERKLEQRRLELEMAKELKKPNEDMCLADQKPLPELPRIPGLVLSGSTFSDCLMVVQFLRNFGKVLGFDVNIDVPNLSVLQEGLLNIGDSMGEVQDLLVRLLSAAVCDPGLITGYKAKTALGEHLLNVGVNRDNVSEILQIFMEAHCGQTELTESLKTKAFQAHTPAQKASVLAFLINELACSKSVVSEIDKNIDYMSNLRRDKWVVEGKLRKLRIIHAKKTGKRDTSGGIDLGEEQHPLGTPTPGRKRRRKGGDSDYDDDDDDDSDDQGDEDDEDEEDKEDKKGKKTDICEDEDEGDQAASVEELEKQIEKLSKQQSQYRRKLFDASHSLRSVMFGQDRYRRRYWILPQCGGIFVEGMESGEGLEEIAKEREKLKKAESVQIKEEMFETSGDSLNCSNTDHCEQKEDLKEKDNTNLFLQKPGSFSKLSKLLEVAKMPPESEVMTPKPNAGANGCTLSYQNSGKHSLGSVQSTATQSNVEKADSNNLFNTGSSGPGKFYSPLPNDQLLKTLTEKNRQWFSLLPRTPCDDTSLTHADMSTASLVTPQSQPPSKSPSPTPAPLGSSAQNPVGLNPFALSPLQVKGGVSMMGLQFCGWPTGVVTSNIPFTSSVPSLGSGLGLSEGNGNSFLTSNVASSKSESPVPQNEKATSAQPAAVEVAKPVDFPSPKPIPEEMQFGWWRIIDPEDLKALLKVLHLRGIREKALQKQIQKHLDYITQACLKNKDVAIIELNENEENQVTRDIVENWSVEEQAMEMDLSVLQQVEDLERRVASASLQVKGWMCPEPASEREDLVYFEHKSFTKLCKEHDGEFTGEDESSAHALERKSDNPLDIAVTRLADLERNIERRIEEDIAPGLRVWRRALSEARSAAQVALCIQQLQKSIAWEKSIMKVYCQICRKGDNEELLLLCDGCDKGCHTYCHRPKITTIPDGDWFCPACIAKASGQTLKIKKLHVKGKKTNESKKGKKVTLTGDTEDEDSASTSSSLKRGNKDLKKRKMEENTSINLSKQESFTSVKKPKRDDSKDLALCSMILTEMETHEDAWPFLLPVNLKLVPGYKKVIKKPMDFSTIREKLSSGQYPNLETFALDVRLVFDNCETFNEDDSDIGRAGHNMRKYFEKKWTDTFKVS

| Compound | Potency |
| --- | --- |
| COC(=O)c1ccc(C(=O)OCCCc2nc3ccc(N)cc3[nH]2)cc1 | inactive |
| CCOC(=O)c1c(NC(=O)CC)sc(C(C)=O)c1C | inconclusive: 79.4 µM [inhibitor, partial curve] |
| CCOc1cccc(-c2nn(-c3ccccc3)cc2/C=C(/C#N)C(=O)NCCCn2ccnc2)c1 | active: 35.5 µM |
| Cc1ccc(-n2c(Cc3noc4ccccc34)n[nH]c2=S)cc1 | inconclusive: 28.2 µM [inhibitor, full curve, poor fit] |
| COc1ccc(N2CCN(C(=O)Cn3nc(Cc4cccnc4)c4ccccc4c3=O)CC2)cc1 | inconclusive: 79.4 µM [inhibitor, partial curve] |
| COc1ccc(N2CCN(CC(O)COc3cc(C)ccc3C)CC2)cc1 (stereo not given) | inconclusive: 39.8 µM [inhibitor, partial curve] |
| O=C(Nc1ccccc1N1CCOCC1)c1cc(-c2ccco2)nc2ccccc12 | active: 50.1 µM |
| CNC(=O)c1[nH]cnc1C(=O)Nc1ccc(OC)cc1 | active: 79.4 µM |
| COc1ccccc1N1CCN(C(=O)c2sc3nc(C)nc(N4CCN(c5ccccn5)CC4)c3c2C)CC1 | inconclusive: 28.2 µM [inhibitor, full curve, poor fit] |
| CCc1cc(-c2n[nH]c(C)c2-c2nc3ccccc3n2C)c(O)c(CN2CCN(C)CC2)c1O | inconclusive: 39.8 µM [inhibitor, partial curve] |
| O=S(=O)(c1ccc(SCCOc2cccc(Br)c2)nc1)N1CCCC1 | inactive |
| CCOc1ccccc1NC(=O)c1cc(C(=O)c2cc(OC)ccc2O)coc1=N | inconclusive: 89.1 µM [inhibitor, single point] |
| CCN(c1ccc(NC(=O)COC(=O)c2cc3ccccc3oc2=O)cc1)C(C)C | active: 31.6 µM |
| O=C(CCCSc1nc2ccccc2[nH]1)NCc1ccccc1F | inactive |
| COCCNCCCCOc1c(Cl)cc(C)cc1Br | active: 50.1 µM |
| O=C(N/N=C/c1ccc(O)cc1)c1[nH]c2ccc(Br)cc2c1-c1ccccc1 | inactive |
| COc1ccc(C(=NNc2ccccc2C(=O)O)c2ccc(OC)cc2)cc1 | inconclusive: 44.7 µM [inhibitor, partial curve] |
| CCc1ccc(-c2nn[nH]n2)cc1 | inconclusive: 89.1 µM [inhibitor, single point] |
| CCCOc1ccc(Cc2nn3c(=O)/c(=C/c4ccco4)sc3nc2=O)cc1 | inactive |
| O=C(CCc1c[nH]c2ccccc12)N1CCN(c2ccc(F)cc2)CC1 | inconclusive: 50.1 µM [inhibitor, partial curve] |
